{
  "source": "the BET-seq Pho4 binding data (Le et al. 2018)",
  "note": "The list shows a part of the results. These are noisy estimates, calculated here from bound and input reads.",
  "data": [
    {"target": "T1, Pho4 (S. cerevisiae) (UniProt P07270)", "T1 sequence": "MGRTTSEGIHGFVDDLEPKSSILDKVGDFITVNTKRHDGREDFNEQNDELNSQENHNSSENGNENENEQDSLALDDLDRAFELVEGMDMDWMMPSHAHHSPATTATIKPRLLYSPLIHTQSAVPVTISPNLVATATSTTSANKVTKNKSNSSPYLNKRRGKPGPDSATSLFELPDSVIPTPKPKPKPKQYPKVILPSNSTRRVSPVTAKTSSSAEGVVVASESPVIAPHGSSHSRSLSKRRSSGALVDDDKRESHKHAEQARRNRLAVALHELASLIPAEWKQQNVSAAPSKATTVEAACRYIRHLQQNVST", "experiment": "relative binding free energy (BET-seq); higher = weaker binding", "settings": "reference: library average", "units": {"relative binding free energy": "kcal/mol"}, "values": [
      {"sequence": "TGTGGCACGTGAAGTG", "relative binding free energy": 0.26},
      {"sequence": "GCAGGCACGTGTATGT", "relative binding free energy": -0.07},
      {"sequence": "GAGTTCACGTGGGGAT", "relative binding free energy": 0.24},
      {"sequence": "AGTGCCACGTGTGTTT", "relative binding free energy": 0.03},
      {"sequence": "TAGGGCACGTGTAGTA", "relative binding free energy": -0.16},
      {"sequence": "GGTTACACGTGTGCGC", "relative binding free energy": 0.04},
      {"sequence": "CAGGGCACGTGACAGG", "relative binding free energy": 0},
      {"sequence": "CTTGGCACGTGTTGTC", "relative binding free energy": -0.17},
      {"sequence": "AGCTGCACGTGATTGT", "relative binding free energy": 0.01},
      {"sequence": "TTTTGCACGTGGCTCG", "relative binding free energy": -0.07},
      {"sequence": "TGGGGCACGTGTCGAG", "relative binding free energy": -0.04},
      {"sequence": "TAAGGCACGTGTAGTA", "relative binding free energy": -0.01},
      {"sequence": "TTAAACACGTGCATGG", "relative binding free energy": -0.04},
      {"sequence": "CTTCGCACGTGTTGGT", "relative binding free energy": -0.01},
      {"sequence": "ATTGACACGTGGTGTG", "relative binding free energy": -0.13},
      {"sequence": "AGTGGCACGTGGTGTA", "relative binding free energy": -0.23},
      {"sequence": "GTTACCACGTGGTATG", "relative binding free energy": -0.1},
      {"sequence": "TGGCGCACGTGTGGAT", "relative binding free energy": 0.07},
      {"sequence": "TGAGTCACGTGAATTA", "relative binding free energy": 0.27},
      {"sequence": "TGGAGCACGTGTAGAT", "relative binding free energy": 0.14},
      {"sequence": "GGTGTCACGTGGCTTT", "relative binding free energy": 0.07},
      {"sequence": "AGCTGCACGTGGTATT", "relative binding free energy": -0.11},
      {"sequence": "TTCGGCACGTGATGTG", "relative binding free energy": 0.09},
      {"sequence": "GTTGACACGTGTGTTG", "relative binding free energy": 0.05},
      {"sequence": "GTTTTCACGTGATCTT", "relative binding free energy": 0.54},
      {"sequence": "GGGGTCACGTGTGACG", "relative binding free energy": 0.28},
      {"sequence": "TAGTTCACGTGCAAGT", "relative binding free energy": 0.28},
      {"sequence": "CTAATCACGTGGTTTG", "relative binding free energy": 0.09},
      {"sequence": "TACGGCACGTGTTTTA", "relative binding free energy": 0.01},
      {"sequence": "AGTTACACGTGGGGTG", "relative binding free energy": -0.11},
      {"sequence": "CGTTGCACGTGTCGTA", "relative binding free energy": 0.11},
      {"sequence": "TATGGCACGTGATAGT", "relative binding free energy": 0.04},
      {"sequence": "TCTGTCACGTGGCGTG", "relative binding free energy": 0.05},
      {"sequence": "AGGAGCACGTGTGGGT", "relative binding free energy": 0.05},
      {"sequence": "TGAGTCACGTGATGTA", "relative binding free energy": 0.07},
      {"sequence": "AGTGCCACGTGAGGAT", "relative binding free energy": 0.3},
      {"sequence": "TTAATCACGTGAAGGA", "relative binding free energy": 0.26},
      {"sequence": "GATTACACGTGTGTAA", "relative binding free energy": 0.19},
      {"sequence": "GTAATCACGTGGGCTG", "relative binding free energy": 0.01},
      {"sequence": "GTCTGCACGTGCGGGG", "relative binding free energy": -0.06},
      {"sequence": "GTTTGCACGTGTCAGT", "relative binding free energy": 0.07},
      {"sequence": "GGCTACACGTGGTGAT", "relative binding free energy": 0.13},
      {"sequence": "TTAATCACGTGCGGTT", "relative binding free energy": 0.27},
      {"sequence": "CTTCTCACGTGGGGGT", "relative binding free energy": 0.14},
      {"sequence": "AGGGGCACGTGGCATG", "relative binding free energy": -0.31},
      {"sequence": "ATGGTCACGTGCTGTC", "relative binding free energy": 0.03},
      {"sequence": "GTGGGCACGTGGATCA", "relative binding free energy": 0},
      {"sequence": "TTGTTCACGTGGGTAG", "relative binding free energy": 0.18},
      {"sequence": "CGAGGCACGTGGCGGT", "relative binding free energy": -0.23},
      {"sequence": "TTATTCACGTGTATCG", "relative binding free energy": 0.43},
      {"sequence": "GATCTCACGTGGTGTT", "relative binding free energy": 0.32},
      {"sequence": "ATAAACACGTGGCGTT", "relative binding free energy": -0.02},
      {"sequence": "GCGGTCACGTGCGTGA", "relative binding free energy": 0.08},
      {"sequence": "AGCGCCACGTGGCGGG", "relative binding free energy": -0.18},
      {"sequence": "GGTAACACGTGTATTG", "relative binding free energy": 0.13},
      {"sequence": "ATGGGCACGTGGGCTC", "relative binding free energy": -0.29},
      {"sequence": "AGTGACACGTGAATTG", "relative binding free energy": 0.22},
      {"sequence": "CACGGCACGTGGGGAT", "relative binding free energy": -0.04},
      {"sequence": "GTGTTCACGTGTACTT", "relative binding free energy": 0.31},
      {"sequence": "AATGACACGTGAGGGG", "relative binding free energy": 0.1},
      {"sequence": "TGTAACACGTGAATAT", "relative binding free energy": 0.3},
      {"sequence": "CGAATCACGTGGAGGG", "relative binding free energy": 0.16},
      {"sequence": "ATTGGCACGTGGTCCT", "relative binding free energy": -0.2},
      {"sequence": "AAGGTCACGTGGACGG", "relative binding free energy": 0.07},
      {"sequence": "AGAGTCACGTGTACTT", "relative binding free energy": 0.14},
      {"sequence": "AGGGCCACGTGGATTT", "relative binding free energy": 0.05},
      {"sequence": "GTCATCACGTGGGGAA", "relative binding free energy": 0.2},
      {"sequence": "CTTGCCACGTGAGATG", "relative binding free energy": 0.3},
      {"sequence": "TACGTCACGTGTTTGT", "relative binding free energy": 0.05},
      {"sequence": "GAGCTCACGTGCGGGG", "relative binding free energy": 0.18},
      {"sequence": "TGCGGCACGTGGTTAT", "relative binding free energy": -0.18},
      {"sequence": "TTTCTCACGTGGGTCG", "relative binding free energy": 0.27},
      {"sequence": "TGGATCACGTGAGGCG", "relative binding free energy": 0.32},
      {"sequence": "CAATGCACGTGGGGAG", "relative binding free energy": -0.09},
      {"sequence": "CGAATCACGTGATGGT", "relative binding free energy": 0.17},
      {"sequence": "AGTTACACGTGTATAA", "relative binding free energy": 0.11},
      {"sequence": "TGTTCCACGTGTCTGT", "relative binding free energy": -0.13},
      {"sequence": "GATAACACGTGGTTAG", "relative binding free energy": -0.01},
      {"sequence": "GATGTCACGTGCGGTG", "relative binding free energy": 0.14},
      {"sequence": "ATTTTCACGTGGGTTT", "relative binding free energy": 0.21},
      {"sequence": "TTTCGCACGTGAATAA", "relative binding free energy": 0.34},
      {"sequence": "GATGTCACGTGATCTG", "relative binding free energy": 0.26},
      {"sequence": "TGTAACACGTGTGCTT", "relative binding free energy": 0.05},
      {"sequence": "TTGGGCACGTGATCGG", "relative binding free energy": -0.06},
      {"sequence": "AAAATCACGTGTTGTT", "relative binding free energy": 0.18},
      {"sequence": "CTGTGCACGTGGAGAG", "relative binding free energy": -0.18},
      {"sequence": "GGGCACACGTGGAGTA", "relative binding free energy": 0.11},
      {"sequence": "ATTACCACGTGGTATT", "relative binding free energy": 0.02},
      {"sequence": "CGTTGCACGTGCGCGG", "relative binding free energy": -0.19},
      {"sequence": "AGTAACACGTGGATAG", "relative binding free energy": 0.05},
      {"sequence": "TAAATCACGTGGGGCT", "relative binding free energy": -0.11},
      {"sequence": "AGCTGCACGTGTTGGA", "relative binding free energy": 0.03},
      {"sequence": "GTTGACACGTGACAGG", "relative binding free energy": 0.2},
      {"sequence": "GTGGCCACGTGTTTTT", "relative binding free energy": 0.2},
      {"sequence": "GAAGGCACGTGAGGTC", "relative binding free energy": 0.18},
      {"sequence": "GATTGCACGTGGTTAA", "relative binding free energy": 0.13},
      {"sequence": "GGTTGCACGTGTGCAC", "relative binding free energy": 0.1},
      {"sequence": "GATATCACGTGGGGGC", "relative binding free energy": 0.09},
      {"sequence": "TGCTTCACGTGTAGTG", "relative binding free energy": 0.19},
      {"sequence": "TTGGCCACGTGGTGGT", "relative binding free energy": -0.08},
      {"sequence": "GTGCGCACGTGCTGAG", "relative binding free energy": -0.1},
      {"sequence": "TTTGGCACGTGTATCT", "relative binding free energy": -0.05},
      {"sequence": "AGAATCACGTGTATAT", "relative binding free energy": 0.27},
      {"sequence": "CAGGACACGTGAGTGG", "relative binding free energy": 0.22},
      {"sequence": "GTTTTCACGTGAGAAT", "relative binding free energy": 0.49},
      {"sequence": "TACGGCACGTGTGGTA", "relative binding free energy": -0.13},
      {"sequence": "ATTGCCACGTGTTGAT", "relative binding free energy": 0.01},
      {"sequence": "GAAGACACGTGGTGGT", "relative binding free energy": 0.01},
      {"sequence": "ATTGCCACGTGAGAGT", "relative binding free energy": 0.11},
      {"sequence": "AAGGTCACGTGTATGG", "relative binding free energy": 0.16},
      {"sequence": "AATGACACGTGTATTT", "relative binding free energy": 0.1},
      {"sequence": "TGTCGCACGTGGGCGG", "relative binding free energy": -0.27},
      {"sequence": "TTCTGCACGTGATTAG", "relative binding free energy": 0.07},
      {"sequence": "GGTCCCACGTGTAGGG", "relative binding free energy": -0.03},
      {"sequence": "TACGTCACGTGGAGAG", "relative binding free energy": 0.13}
    ]}
  ]
}
